# Where “and” joins values, the source holds several entries; their conditions need not be identical. Equal entries are not always repeated. Hit rate of the full screen: of about 420,000 compounds, about 64,000 (15%) were called active. The inconclusive results got no clear call from the source; some entries with a clear call stand among them for comparison. Calls follow the shape of the dose curve; as a rule, active = well fitted inhibition curve with a large enough effect; inconclusive = small, poorly fitted or top-dose-only effect; inactive = flat fitted curve, though single readings scatter. Potencies of inconclusive entries are left out as doubtful fits.
# Assay: qHTS for Inhibitors of human tyrosyl-DNA phosphodiesterase 1 (TDP1): qHTS in cells in absence of CPT; also: nearly all actives have a fitted effect of over 55% in size
# Conditions: DT40 Tdp1-/- hTDP1 cells, no CPT, ATP luminescence, 48 h; activity change, negative = growth inhibition: at 46.2 µM (top of the series)
# Procedure, shortened: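 Seeded 400 DT40-hTDP1 cells/well (vehicle DMSO, no 20 nM CPT); pinned compounds; ≥48 hr at 37 °C; CellTiter-Glo luminescence as viability measure.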
# % is scaled to controls: 0 for no effect and ±100 for the full control effect; potency is read from the fitted curve at half-maximal effect; tags tell the direction and shape of the fitted curve.
Compound,Potency,"activity change, negative = growth inhibition"
CCCCCOc1ccc(CSC(=N)N)cc1[N+](=O)[O-],active: 16.4 µM,–
O=C1NC(=O)/C(=C\c2ccccc2OCc2ccc([N+](=O)[O-])cc2)N1,"inconclusive [inhibitor, partial curve]",–
C[C@H](C(=O)CC(=O)OC(C)(C)C)[C@H](O)c1ccccc1,–,inactive: -1.44%
Brc1cccc(CN2CCN(c3ncccn3)CC2)c1,–,inactive: -4.95%
Cc1ccn2c(Nc3ccc(C(C)C)cc3)c(-c3cccnc3)nc2c1,"inconclusive [inhibitor, single point]",–
CC(C)c1onc(C(=O)Nc2sc3c(c2C#N)CCC3)c1[N+](=O)[O-],–,inactive: -5.78%
CCN1C(=O)c2ccccc2C1Nc1ccc(OCCN2CCCCC2)cc1 (configuration not stated),–,inactive: -28.5%
Cc1c(C)c2c(OCC(=O)NCCCO)cc3c(c2oc1=O)CCC(C)(C)O3,–,inconclusive: -30.4% [inhibitor]
Cc1cc(Cl)c(OCCOCCN2CCCCC2)c(Br)c1,"inconclusive [inhibitor, single point]",–
C=CCNC(=O)c1onc(CSc2ccccc2CC)c1C(=O)O,–,inactive: -1.64%
Cc1ncc(CO)c(C=O)c1O,inactive,–
COc1cccc(C(C(=O)NCC2CCCO2)N(C(=O)Cn2nnc3ccccc32)c2ccccc2C(C)=O)c1OC (configuration not stated),–,inactive: -2.99%
Cc1c(Cl)ccc2c1NC(=O)[C@]21N[C@@H](Cc2ccccc2)[C@H]2C(=O)N(c3ccc(F)cc3)C(=O)[C@H]21,"inconclusive [inhibitor, single point]",–
Cc1cc(C)c(C2C3=C(Nc4c2c(C)nn4-c2ccccn2)c2ccccc2C3=O)c(C)c1 (configuration not stated),active: 8.2 µM,–
COc1ccc(C=C2Cc3ccccc3C2=O)cc1,"inconclusive [inhibitor, single point]",–
CC1CC(NC(=S)N(C)C)CC(C)(C)C1 (configuration not stated),"inconclusive [inhibitor, single point]",–
O=C(Nc1nc(OCCN2CCCC2=O)cnc1/C=C\c1ccccc1)c1cc2ccccc2s1,"inconclusive [inhibitor, single point]",–
O=C(CCCn1c(=S)[nH]c2ccccc2c1=O)N1CCCCC1,"inconclusive [inhibitor, single point]",–
CC(=O)c1cccc(NS(=O)(=O)c2cc3c(cc2C)N(C(C)=O)CCO3)c1,"inconclusive [inhibitor, partial curve, poor fit]",–
O=c1c2ccccc2nc(/C=C/c2ccc3c(c2)OCO3)n1CCCO,"inconclusive [inhibitor, single point]",–
N#C/C(=C(/O)COC(=O)CCc1ccc(S(=O)(=O)N2CCOCC2)cc1)c1nc2ccccc2[nH]1,active: 13 µM,–
N#CC(C#N)=C1c2cc(S(N)(=O)=O)ccc2-c2ccc(S(N)(=O)=O)cc21,active: 20.6 µM,–
CCNC(=S)NNC(=O)c1cc(CC(C)C)nc2ccccc12,"inconclusive [inhibitor, single point]",–
C/C(=N/NC(=O)NC12CC3CC(CC(C3)C1)C2)c1ccccc1,"inconclusive [inhibitor, single point]",–

Compound,Potency,"activity change, negative = growth inhibition"
Cc1cccc(C)c1NC(=O)CNC(=O)c1cn(-c2ccccc2)nc1-c1ccccc1,"inconclusive [inhibitor, single point]",–
O=C(CCCc1ccccc1)NC1CC(=O)N(c2ccc(F)cc2)C1 (configuration not stated),"inconclusive [inhibitor, single point]",–
CCN(CCO)Cc1csc2ccc(C(C)(C)C)cc12,"inconclusive [inhibitor, single point]",–
COC(=O)c1sccc1NC(=O)c1cc(-c2ccc(C)cc2C)nc2ccccc12,"inconclusive [inhibitor, single point]",–
COc1ccc(CN2C(=O)CC(Cc3ccc(C)cc3)C2=O)cc1OC (configuration not stated),"inconclusive [inhibitor, single point]",–
CCOC(=O)c1nn(-c2ccc(Br)cc2)cc1C(=O)c1cccc2ccccc12,active: 16.4 µM,–
CN1C[C@@H]2C(c3ccccc3)C3(c4ccccc4)CC2(C3)[C@H]1c1ccccc1 (some centres not stated),"inconclusive [inhibitor, single point]",–
COc1ccc(C2c3ccc(O)cc3Oc3ncn(CCCO)c(=N)c32)cc1OC (configuration not stated),–,inactive: 7.05%
CCCCCCC[n+]1ccc(/C=C/c2c[nH]c3ccccc23)c2ccccc21,active: 1.12 µM,–
COc1cc(F)cc(-c2ccc3c(c2)c(-c2cccs2)c(-c2cc(OC)cc(OC)c2)n3C)c1,active: 23.1 µM,–
CCc1nnc(SCC(=O)Nc2ccc(N3CCOCC3)cc2)n1C,–,inactive: -21.9%
CCCN1C(=O)/C(=C/c2cc(C)n(C)c2C)SC1=Nc1ccc(OC)cc1,active: 9.2 µM,–
CCN(CC)C(=O)c1[nH]cnc1C(=O)NCC(=O)OC(C)(C)C,–,inactive: -10.2%
CCCCCCn1c(-c2ccco2)nc2oc3cc(OC)ccc3c(=O)c2c1=O,active: 20.6 µM,–
CCOc1ccc(S(=O)(=O)N(C)c2ccc(OCC(=O)Nc3nccs3)cc2)cc1,"inconclusive [inhibitor, single point]",–
CCC(C)NCCCCOc1cc(C)cc(C(C)C)c1 (configuration not stated),active: 18.4 µM,–
COc1cc(C2NC(=O)NC(C)=C2C(=O)OCc2ccc(C)cc2)cc(OC)c1OC (configuration not stated),"inconclusive [inhibitor, partial curve]",–
Cn1cncc1C#Cc1ccc(N2C(c3ccsc3)=Cc3ccc(F)cc3C2c2c[nH]c3ccccc23)cc1 (configuration not stated),"inconclusive [inhibitor, single point]",–
CC(=O)NC(c1ccccc1)c1nc(-c2ccc(Cl)cc2)cs1 (configuration not stated),"inconclusive [inhibitor, single point]",–
C[C@@H](NC(=O)[C@@H]1CCCN1C(=O)OC(C)(C)C)c1ccccc1,–,inactive: -3.28%
CCOc1ccc(-c2nnc3ccc(SC)nn23)cc1,–,inconclusive: -38% [inhibitor]
Cc1nc(N2CCCCC2)sc1C(=O)c1cccc([N+](=O)[O-])c1,"inconclusive [inhibitor, single point]",–
COc1ccc(CCn2c(=N)c(C(=O)NCC3CCCO3)cc3c(=O)n4cccc(C)c4nc32)cc1OC (configuration not stated),active: 0.517 µM,–
O=C(CCc1nc2ccccc2c(=O)[nH]1)N1CCN(c2ccccc2Cl)CC1,active: 16.4 µM,–

Compound,Potency,"activity change, negative = growth inhibition"
O=C(COc1ccc(S(=O)(=O)Nc2ccc(Cl)cc2)cc1)N1CCOCC1,"inconclusive [inhibitor, partial curve]",–
O=C(CSc1nc2[nH]ncc2c(=O)[nH]1)c1ccccc1,–,inactive: 4.34%
CCCOC(=O)c1c(NC(=O)/C=C/c2cnn(C)c2C)sc(C(=O)OC)c1C,"inconclusive [inhibitor, single point]",–
CCOC(=O)CNC(=O)N1C[C@H]2CON(C)[C@H]2C[C@H]1c1ccccc1Br,–,inactive: -1.69%
CC1=C(C(=O)OC2CCCCCCC2)C(c2cc3c(cc2Br)OCO3)CC(=O)N1 (configuration not stated),"inconclusive [inhibitor, single point]",–
CCOC(=O)c1ccc(N(CC2CO2)S(=O)(=O)c2ccc(C)cc2)cc1 (configuration not stated),active: 16.4 µM,–
Cc1c(-c2nc(-c3ccc4c(c3)OCO4)no2)nnn1-c1ccc(C(C)C)cc1,"inconclusive [inhibitor, single point]",–
CCc1nn(CCCC(=O)N2CCN(c3cccc(OC)c3)CC2)c(=O)c2cc3occc3n12,–,inactive: -26.5%
O=C(CNC(=O)c1ccc(Cl)cc1Cl)OCc1ccccc1,–,inactive: -1.25%
C=CCOC(=O)C1=C(C)Nc2nnnn2C1c1ccc(OC)cc1OC (configuration not stated),–,inactive: -15.6%
O=C(Nc1ccc(-c2nc3ccccc3[nH]2)cc1)C1CCCN(Cc2ccn[nH]2)C1 (configuration not stated),"inconclusive [inhibitor, single point]",–
Cc1cccc(NC(=O)C(Cc2ccccc2)NS(=O)(=O)c2ccc3c(c2)c(=O)n(C)c(=O)n3C)c1 (configuration not stated),"inconclusive [inhibitor, single point]",–
CC(C)C(=O)N(Cc1cc2ccccc2[nH]c1=O)C(C)(C)C,active: 20.6 µM,–
O=C1[C@H]2CCCC[C@H]2C(=O)N1CCCCN1CCN(c2nsc3ccccc23)CC1,active: 23.7 µM and active: 13 µM,–
COc1cccc(NC(=O)C2CCCN(S(=O)(=O)c3cccc4cccnc34)C2)c1 (configuration not stated),"inconclusive [inhibitor, partial curve]",–
C=C(C)Cn1c(=S)[nH]c2ccccc2c1=O,"inconclusive [inhibitor, single point]",–
COC(=O)c1cc(C)nc2c1c(=O)nc(SCc1ccccc1C)n2C1CC1,"inconclusive [inhibitor, single point]",–
CCOC(=O)c1c(NC(=S)Nc2ccccc2)sc2c1CCN(C)C2,"inconclusive [inhibitor, single point]",–
COC(=O)C1CCN(S(=O)(=O)c2ccc(N3CCCCS3(=O)=O)cc2)CC1,–,inactive: -22.8%
Cc1ccc(N(CCC#N)C(=O)COC(=O)c2cc(C)oc2C)cc1,–,inactive: -23.8%
CN1CCC(=C(c2ccccc2)c2ccc(Br)cc2)CC1,active: 16.4 µM,–
COc1ccc(CCN2C(=O)c3[nH]nc(-c4ccccc4O)c3C2c2ccc(OC)c(OC)c2)cc1 (configuration not stated),"inconclusive [inhibitor, single point]",–
CCOC(=O)c1c(NC(=O)CSc2cn(CCNC(=O)c3c(F)cccc3F)c3ccccc23)sc2c1CCC2,–,inconclusive: -31.6% [inhibitor]
Cn1nc(-c2ccccc2)c(CO)c1Oc1ccc(F)cc1,"inconclusive [inhibitor, single point]",–

# Reference: PubChem BioAssay AID686978 (National Center for Advancing Translational Sciences (NCATS), 2013)
